Paper PMC9911399, “Two distinct binding modes provide the RNA-binding protein RbFox with extraordinary sequence specificity”
Changes are numbered by the printed parent chain; changes in the protein carry UniProt numbers. Some of the results follow.

T1: RBFOX1 RRM RbFoxmut (Fox-RRM*) (Homo sapiens, UniProt Q9NWB1 109-208, R118D;E147R;N151S;E152T)
T1 sequence: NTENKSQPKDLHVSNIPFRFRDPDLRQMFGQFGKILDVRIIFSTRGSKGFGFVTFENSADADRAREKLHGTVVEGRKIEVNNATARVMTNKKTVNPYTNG

B1: UAGACAA (DNA:RNA)
RNA: GGGAGACCGGAAUUCAGAUUGUCCUAGACAAUUAAAUCCCGUCGUAGCCACCA
DNA 1: CAATCTGAATTCCGGTCTCCC
DNA 2: TGGTGGCTACGACGGGATT
B2: ACACCGU (DNA:RNA)
RNA: B1 RNA with U25A, A26C, G27A, A28C, A30G, A31U
DNA 1: CAATCTGAATTCCGGTCTCCC
DNA 2: TGGTGGCTACGACGGGATT
B3: AGCGAAA (DNA:RNA)
RNA: B1 RNA with U25A, A26G, G27C, A28G, C29A
DNA 1: CAATCTGAATTCCGGTCTCCC
DNA 2: TGGTGGCTACGACGGGATT
B4: CGACAGG (DNA:RNA)
RNA: GGGAGACCGGAAUUCAGAUUGUCCCGACAGGUUAAAUCCCGUCGUAGCCACCA
DNA 1: CAATCTGAATTCCGGTCTCCC
DNA 2: TGGTGGCTACGACGGGATT
B5: CAAACCU (DNA:RNA)
RNA: B1 RNA with U25C, G27A, A30C, A31U
DNA 1: CAATCTGAATTCCGGTCTCCC
DNA 2: TGGTGGCTACGACGGGATT
B6: CAAUCUU (DNA:RNA)
RNA: B4 RNA with G26A, C28U, A29C, G30U, G31U
DNA 1: CAATCTGAATTCCGGTCTCCC
DNA 2: TGGTGGCTACGACGGGATT
B7: GAGUUCC (DNA:RNA)
RNA: B1 RNA with U25G, A28U, C29U, A30C, A31C
DNA 1: CAATCTGAATTCCGGTCTCCC
DNA 2: TGGTGGCTACGACGGGATT
B8: UCCGUAU (DNA:RNA)
RNA: B1 RNA with A26C, G27C, A28G, C29U, A31U
DNA 1: CAATCTGAATTCCGGTCTCCC
DNA 2: TGGTGGCTACGACGGGATT
B9: CUCAGUU (DNA:RNA)
RNA: B4 RNA with G26U, A27C, C28A, A29G, G30U, G31U
DNA 1: CAATCTGAATTCCGGTCTCCC
DNA 2: TGGTGGCTACGACGGGATT
B10: GAUAAUU (DNA:RNA)
RNA: B1 RNA with U25G, G27U, C29A, A30U, A31U
DNA 1: CAATCTGAATTCCGGTCTCCC
DNA 2: TGGTGGCTACGACGGGATT
B11: AUCGGUC (DNA:RNA)
RNA: GGGAGACCGGAAUUCAGAUUGUCCAUCGGUCUUAAAUCCCGUCGUAGCCACCA
DNA 1: CAATCTGAATTCCGGTCTCCC
DNA 2: TGGTGGCTACGACGGGATT
B12: UAGCAUC (DNA:RNA)
RNA: B1 RNA with A28C, C29A, A30U, A31C
DNA 1: CAATCTGAATTCCGGTCTCCC
DNA 2: TGGTGGCTACGACGGGATT
B13: ACAAAUG (DNA:RNA)
RNA: B4 RNA with C25A, G26C, C28A, G30U
DNA 1: CAATCTGAATTCCGGTCTCCC
DNA 2: TGGTGGCTACGACGGGATT
B14: AAUGCAU (DNA:RNA)
RNA: B1 RNA with U25A, G27U, A28G, A31U
DNA 1: CAATCTGAATTCCGGTCTCCC
DNA 2: TGGTGGCTACGACGGGATT
B15: UUGGGGG (DNA:RNA)
RNA: B11 RNA with A25U, C27G, U30G, C31G
DNA 1: CAATCTGAATTCCGGTCTCCC
DNA 2: TGGTGGCTACGACGGGATT
B16: CGGAGUU (DNA:RNA)
RNA: B11 RNA with A25C, U26G, C27G, G28A, C31U
DNA 1: CAATCTGAATTCCGGTCTCCC
DNA 2: TGGTGGCTACGACGGGATT
B17: GGUGUUG (DNA:RNA)
RNA: B11 RNA with A25G, U26G, C27U, G29U, C31G
DNA 1: CAATCTGAATTCCGGTCTCCC
DNA 2: TGGTGGCTACGACGGGATT
B18: GCGGUUC (DNA:RNA)
RNA: B11 RNA with A25G, U26C, C27G, G29U
DNA 1: CAATCTGAATTCCGGTCTCCC
DNA 2: TGGTGGCTACGACGGGATT
B19: CUGGAAG (DNA:RNA)
RNA: B4 RNA with G26U, A27G, C28G, G30A
DNA 1: CAATCTGAATTCCGGTCTCCC
DNA 2: TGGTGGCTACGACGGGATT
B20: GGACUUG (DNA:RNA)
RNA: B4 RNA with C25G, A29U, G30U
DNA 1: CAATCTGAATTCCGGTCTCCC
DNA 2: TGGTGGCTACGACGGGATT
B21: CUGUACC (DNA:RNA)
RNA: B11 RNA with A25C, C27G, G28U, G29A, U30C
DNA 1: CAATCTGAATTCCGGTCTCCC
DNA 2: TGGTGGCTACGACGGGATT
B22: AUACCUG (DNA:RNA)
RNA: B11 RNA with C27A, G28C, G29C, C31G
DNA 1: CAATCTGAATTCCGGTCTCCC
DNA 2: TGGTGGCTACGACGGGATT
B23: CCAACGA (DNA:RNA)
RNA: B4 RNA with G26C, C28A, A29C, G31A
DNA 1: CAATCTGAATTCCGGTCTCCC
DNA 2: TGGTGGCTACGACGGGATT
B24: UUUCGUG (DNA:RNA)
RNA: B11 RNA with A25U, C27U, G28C, C31G
DNA 1: CAATCTGAATTCCGGTCTCCC
DNA 2: TGGTGGCTACGACGGGATT
B25: UGCCUGG (DNA:RNA)
RNA: B4 RNA with C25U, A27C, A29U
DNA 1: CAATCTGAATTCCGGTCTCCC
DNA 2: TGGTGGCTACGACGGGATT
B26: CAGGAUG (DNA:RNA)
RNA: B4 RNA with G26A, A27G, C28G, G30U
DNA 1: CAATCTGAATTCCGGTCTCCC
DNA 2: TGGTGGCTACGACGGGATT
B27: GAGUGCU (DNA:RNA)
RNA: B1 RNA with U25G, A28U, C29G, A30C, A31U
DNA 1: CAATCTGAATTCCGGTCTCCC
DNA 2: TGGTGGCTACGACGGGATT
B28: AGGUUUU (DNA:RNA)
RNA: B11 RNA with U26G, C27G, G28U, G29U, C31U
DNA 1: CAATCTGAATTCCGGTCTCCC
DNA 2: TGGTGGCTACGACGGGATT
B29: GCGGGUU (DNA:RNA)
RNA: B11 RNA with A25G, U26C, C27G, C31U
DNA 1: CAATCTGAATTCCGGTCTCCC
DNA 2: TGGTGGCTACGACGGGATT
B30: CUAAAAA (DNA:RNA)
RNA: B4 RNA with G26U, C28A, G30A, G31A
DNA 1: CAATCTGAATTCCGGTCTCCC
DNA 2: TGGTGGCTACGACGGGATT
B31: UCGUAGU (DNA:RNA)
RNA: B4 RNA with C25U, G26C, A27G, C28U, G31U
DNA 1: CAATCTGAATTCCGGTCTCCC
DNA 2: TGGTGGCTACGACGGGATT

target: T1, RBFOX1 RRM RbFoxmut (Fox-RRM*); assay: EMSA; HiTS-Eq, 1 nM pool, 10 min; buffer printed only for the single-RNA assays: 10 mM Tris pH 7.5, 150 mM NaCl, 3.4 mM EDTA, 0.001% NP-40, 30 C; details: tags: His6 N-terminal (pET28a); label: 5' 32P
Summary of the method: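 These values rest on relative association constants, computed from read-count changes of each RNA species versus the control reaction and normalised to the cognate motif. Reads came from free RNA recovered by 8% native PAGE after purified RbFox RRM (wild type or mutant) at increasing concentrations was equilibrated for 10 min in 50 µL with 1 nM of a 5′-radiolabelled pool with 7 randomized nucleotides and DNA-annealed flanks.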

Binder | binding signal
B1 | 0.0308 KA relative to UGCAUGU
B2 | 0.0982 KA relative to UGCAUGU
B3 | 0.139 KA relative to UGCAUGU
B4 | 0.0877 KA relative to UGCAUGU
B5 | 0.104 KA relative to UGCAUGU
B6 | 0.0518 KA relative to UGCAUGU
B7 | 0.0447 KA relative to UGCAUGU
B8 | 0.0976 KA relative to UGCAUGU
B9 | 0.0603 KA relative to UGCAUGU
B10 | 0.0624 KA relative to UGCAUGU
B11 | 0.182 KA relative to UGCAUGU
B12 | 0.266 KA relative to UGCAUGU
B13 | 0.107 KA relative to UGCAUGU
B14 | 0.11 KA relative to UGCAUGU
B15 | 0.0724 KA relative to UGCAUGU
B16 | 0.0808 KA relative to UGCAUGU

Binder | binding signal
B17 | 0.321 KA relative to UGCAUGU
B18 | 0.148 KA relative to UGCAUGU
B19 | 0.0969 KA relative to UGCAUGU
B20 | 0.201 KA relative to UGCAUGU
B21 | 0.137 KA relative to UGCAUGU
B22 | 0.0917 KA relative to UGCAUGU
B23 | 0.0717 KA relative to UGCAUGU
B24 | 0.119 KA relative to UGCAUGU
B25 | 0.233 KA relative to UGCAUGU
B26 | 0.218 KA relative to UGCAUGU
B27 | 0.118 KA relative to UGCAUGU
B28 | 0.068 KA relative to UGCAUGU
B29 | 0.124 KA relative to UGCAUGU
B30 | 0.086 KA relative to UGCAUGU
B31 | 0.152 KA relative to UGCAUGU
